According to PubChem BioAssay (NCI):
“And” between values parts separate entries of the source, which are not always exact repeats. Equal values may be shown once.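 Results reflect a 48-hour exposure of cells in 96-well plates to compound at five concentrations. GI50: concentration for 50% inhibition of growth. TGI denotes the concentration required for complete inhibition of growth.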

What follows are compounds tested on NCI-H322M lung (assay: DTP human tumour cell line panel, 48 h).

Compared with `CN(C)/[N+]([O-])=N/Oc1cc(Nc2cccc(C(=O)O)c2)c([N+](=O)[O-])cc1[N+](=O)[O-]`, `O=[N+]([O-])c1ccc(N2CCN(Cc3ccccc3)CC2)c2c1no[n+]2[O-]` is 5.8-fold lower in GI50: 19.7 µM for the first, 3.37 µM for the second.

Going from `OC(c1cc2cc(Br)ccc2c2cc(Br)ccc12)C1CCCCN1` (stereo unspecified) to `CC(C)C[C@H](NC(=O)[C@H](Cc1ccccc1)n1ccc(N2CCCCC2)cc1=O)B(O)O`, the GI50 rises from 1.95 µM to > 100 µM.

Going from `C=C1C(=O)O[C@H]2[C@H]1CC/C(COC(=O)C(=O)c1c[nH]c3ccccc13)=C\CC[C@@]1(C)O[C@@H]21` to `CNc1ccccc1C(=O)N/N=C/C=C/c1ccccc1`, the GI50 falls from 14.3 µM to 9.19 µM (1.6-fold).

Compared with `CS(=O)(=O)c1ccc(Oc2cc(F)cc(C#N)c2)c2c1[C@H](O)[C@H](F)[C@@H]2F`, `CCC1=C(C)/C(=C/c2[nH]c(C)c(C(=O)CCCCC(=O)OC)c2C)N=C1c1ccc[nH]1` is lower in GI50: > 100 µM for the first, 56.5 µM for the second.

First: Oc1c(CN2CCC(N3CCOCC3)CC2)cc(Cc2cc(CN3CCC(N4CCOCC4)CC3)c(O)c3ncccc23)c2cccnc12
Second: Oc1ccc(C(c2ccccc2)(c2ccccc2)c2ccccc2)cc1
The GI50 of the first is 83-fold lower: 0.229 µM for the first, 19 µM for the second.

`CCn1c(=O)c(-c2ccn[nH]2)cc2c(C)nc(N)nc21` gave a GI50 of 1.38 µM.

First: CN(C)/[N+]([O-])=N/Oc1cc(Nc2cccc(C(=O)O)c2)c([N+](=O)[O-])cc1[N+](=O)[O-]
Second: COc1ccc2[nH]c(CCNC(=O)c3cc([N+](=O)[O-])cc([N+](=O)[O-])c3)cc2c1
The TGI of the first is lower: 70.2 µM for the first, > 100 µM for the second.

Going from `OC(c1cc2cc(Br)ccc2c2cc(Br)ccc12)C1CCCCN1` (stereo unspecified) to `COC(=O)c1ccccc1C1CN=NC12Cc1ccc3ccccc3c1C2=O` (stereo unspecified), the TGI rises from 3.69 µM to > 100 µM.

`CC(O)C1OC(O)C2OC(C)(C)OC12` (stereo unspecified) and `CC(C)C(C(=O)O)N(CC1(O)OCC(O)C(O)C1O)N=O` (stereo unspecified) cannot be ordered by TGI: > 100 µM for the first, > 100 µM for the second.

First: O=[N+]([O-])c1ccc(N2CCN(Cc3ccccc3)CC2)c2c1no[n+]2[O-]
Second: Brc1cccc(/C=C/CN2CCN(CCOC(c3ccccc3)c3ccccc3)CC2)c1
The TGI of the first is 3.7-fold lower: 8.92 µM for the first, 32.7 µM for the second.

`Cc1c(N2C(=O)/C(=C/C=C/c3ccccc3)N=C2c2ccccc2)c(=O)n(-c2ccccc2)n1C` and `CCOC(=O)c1c(C)n(Cc2ccccc2)c(=O)c2ccccc2c(=O)c2c(=O)ccc(=O)c1=2` cannot be ordered by TGI: > 100 µM for the first, > 100 µM for the second.

First: CSC(SC)=C1CC(=O)Nc2ccccc2C1=O
Second: Cc1cc2c(c3c1c1ccccc1n3C)C(=O)C=CC2=O
The TGI of the first is higher: > 100 µM for the first, 66.4 µM for the second.

`CCOC(=O)CN1CCNCCN(CC(=O)OCC)CCNCC1` and `CCOC(=O)C1C(=O)CC(O)(OCC)C(C(=O)OCC)C1c1ccc(OC)cc1` (stereo unspecified) cannot be ordered by TGI: > 100 µM for the first, > 100 µM for the second.

First: C=C1C(=O)O[C@H]2[C@H]1CC/C(COC(=O)C(=O)c1c[nH]c3ccccc13)=C\CC[C@@]1(C)O[C@@H]21
Second: Cc1ccc(C)c(NC(=O)C(=O)C2C(=O)C3=C(CC2(C)C)Nc2ccccc2S3)c1 (stereo unspecified)
The TGI of the first is lower: 28.4 µM for the first, > 100 µM for the second.

Going from `COc1nc2c(OC)cccc2c(OC)c1C=O` to `COc1ccc(OC)c(C2CCc3nc4nc(N)nc(N)c4cc3C2)c1` (stereo unspecified), the TGI falls from > 100 µM to 7.11 µM.

`CCN1CC2=C(N=c3s/c(=C\c4ccc(Cl)cc4)c(=O)n3C2c2ccc(Cl)cc2)/C(=C/c2ccc(Cl)cc2)C1` (stereo unspecified) and `Cc1ccc(-c2c(C#N)c(-c3ccc(Cl)cc3)c(C#N)c(=O)n2NS(=O)(=O)c2ccccc2)cc1` cannot be ordered by TGI: > 100 µM for the first, > 100 µM for the second.

Compared with `CC(C)C[C@@H](NC(=O)[C@@H](Cc1ccccc1)NC(=O)c1cnccn1)B1O[C@H]2[C@H](O)[C@@H](C(=O)NCCCC[C@@H]3NC(=O)[C@@H](Cc4ccccc4)NC(=O)[C@H](CC(=O)O)NC(=O)CNC(=O)[C@H](CCCN=C(N)N)NC3=O)O[C@@H](CN)[C@H]2O1`, `CC(C)C[C@H](NC(=O)[C@H](Cc1ccccc1)n1ccc(N2CCCCC2)cc1=O)B(O)O` is higher in TGI: 0.972 µM for the first, > 100 µM for the second.

`CC(C)=CCC[C@]1(C)CC[C@]2(C)C3CCC(=C(C)C)[C@@H](CCCO)[C@]3(C)CC[C@@]2(C)C1` (stereo partly specified) and `CCC1=C(C)/C(=C/c2[nH]c(C)c(C(=O)CCCCC(=O)OC)c2C)N=C1c1ccc[nH]1` cannot be ordered by TGI: > 100 µM for the first, > 100 µM for the second.

`O=c1c(O)c(-c2ccc(O)cc2O)oc2cc(O)cc(O)c12` and `CN/N=C(/Cc1occc(=O)c1O)C(=O)Nc1ccc(C)c(C)c1` cannot be ordered by TGI: > 100 µM for the first, > 100 µM for the second.

`O=C(O)c1ccc(NC(=O)C2C(=O)C(=O)N(c3ccc(C(=O)O)cc3)C2=O)cc1` (stereo unspecified) and `Cc1ccc(S(=O)(=O)N/N=C(\CCN2CCCC2)CC(c2ccccc2)c2c(O)c3ccccc3oc2=O)cc1` (stereo unspecified) cannot be ordered by TGI: > 100 µM for the first, > 100 µM for the second.

`O=C(O)CC(C(=O)O)c1ccccc1[N+](=O)[O-]` (stereo unspecified) and `COC(CN(C)C(=O)C(C)NC(=O)c1ccccc1)OC` (stereo unspecified) cannot be ordered by TGI: > 100 µM for the first, > 100 µM for the second.

Compared with `CC(C(=O)N1C(=O)N(C(=O)C(C)C(O)c2ccccc2)C(c2ccccc2)C1c1ccccc1)C(O)c1ccccc1` (stereo unspecified), `Oc1ccc(C(c2ccccc2)(c2ccccc2)c2ccccc2)cc1` is 2.3-fold lower in TGI: 81.4 µM for the first, 35.5 µM for the second.

`CS(=O)(=O)c1ccc(Oc2cc(F)cc(C#N)c2)c2c1[C@H](O)[C@H](F)[C@@H]2F` and `CCOC(=O)c1nc2cc(N3CCOCC3)c(F)cc2[nH]c1=O` cannot be ordered by TGI: > 100 µM for the first, > 100 µM for the second.

`CSC(=S)c1ccc(C(=S)SC)cc1` and `CC(=O)ON(OC(C)=O)c1ccc(C)cc1` cannot be ordered by TGI: > 100 µM for the first, > 100 µM for the second.

Going from `CNc1ncnc(Sc2nc(N)nc3nc[nH]c23)c1[N+](=O)[O-]` to `CCn1c(=O)c(-c2ccn[nH]2)cc2c(C)nc(N)nc21`, the TGI falls from > 100 µM to 14.6 µM.

`CN(C)c1nc(N(C)C)nc(N(C)C)n1` and `CCN(CC)c1ccc(/C=C(\C#N)c2nc(N)nc(N3N=C(C)CC3(C)C)n2)cc1` cannot be ordered by TGI: > 150 µM for the first, > 61.3 µM for the second.

First: Oc1c(CN2CCC(N3CCOCC3)CC2)cc(Cc2cc(CN3CCC(N4CCOCC4)CC3)c(O)c3ncccc23)c2cccnc12
Second: O=C1c2ccccc2-c2c1c1ccccc1c(=O)n2Cc1ccco1
The TGI of the first is lower: 53.7 µM for the first, > 100 µM for the second.

Going from `CCCCCC(CN1CCOCC1)C(=O)/C=C/c1ccccc1` (stereo unspecified) to `CNc1ccccc1C(=O)N/N=C/C=C/c1ccccc1`, the TGI rises from 14.7 µM to > 100 µM.

`CC(=O)N=C(N=Nc1c(O)[nH]c2ccc(C)cc12)NC(C)=O` and `COc1ccc2[nH]cc(CCNC(C)=O)c2c1` cannot be ordered by TGI: > 100 µM for the first, > 100 µM for the second.

`CCOc1c2ccsc2c(OCC)c2ccsc12` and `CCOC(=N)CC(=O)Nc1ccc(Cl)cc1` cannot be ordered by TGI: > 100 µM for the first, > 100 µM for the second.

`S=CN1CCCCC1` and `Cn1c(=O)oc2cc(C(=O)CSC(=S)N3CCCCCC3)ccc21` cannot be ordered by TGI: > 100 µM for the first, > 100 µM for the second.

Compared with `CN1C2CCC1CC(OC(c1ccccc1)c1ccccc1)C2` (stereo unspecified), `Cc1ccccc1NC(=O)NC(Oc1ccccc1)(C(F)(F)F)C(F)(F)F` is higher in TGI: 66.9 µM for the first, > 100 µM for the second.

Compared with `Clc1ccc(N=C/C=C/Nc2ccc(Cl)cn2)nc1`, `Cc1cc(-c2ccc(C(=O)O)[nH]2)on1` is higher in TGI: 30.4 µM for the first, > 100 µM for the second.

For `CC(C)C[C@@H](NC(=O)[C@@H](Cc1ccccc1)NC(=O)c1cnccn1)B1O[C@H]2[C@H](O)[C@@H](C(=O)NCCCC[C@@H]3NC(=O)[C@@H](Cc4ccccc4)NC(=O)[C@H](CC(=O)O)NC(=O)CNC(=O)[C@H](CCCN=C(N)N)NC3=O)O[C@@H](CN)[C@H]2O1`, the GI50 was 0.0522 µM and 0.0379 µM.
